Scores whose standard error is large were omitted. Not listed are two conditions whose scores span a narrow range. Read del as a deletion of the residues named and ins as an insertion between two positions. For part of these data: How much ogerin was present is not stated here.
B1: GPR68, Q15743 (parent)
chain: MGNITADNSSMSCTIDHTIHQTLAPVVYVTVLVVGFPANCLSLYFGYLQIKARNELGVYLCNLTVADLFYICSLPFWLQYVLQHDNWSHGDLSCQVCGILLYENIYISVGFLCCISVDRYLAVAHPFRFHQFRTLKAAVGVSVVIWAKELLTSIYFLMHEEVIEDENQHRVCFEHYPIQAWQRAINYYRFLVGFLFPICLLLASYQGILRAVRRSHGTQKSRKDQIQRLVLSTVVIFLACFLPYHVLLLVRSVWEASCDFAKGVFNAYHFSLLLTSFNCVADPVLYCFVSETTHRDLARLRGACLAFLTCSRTGRAREAYPLGAPEASGKSGAQGEEPELLTKLHPAFQTPNSPGSGGFPTGRLA

Key:
[1] = variants of: B1; experiment: cAMP reporter score (Enrich2 score, wild type = 0); higher = more signal; HEK293T, FACS bins
[2] = variants of: B1; experiment: surface expression score (Enrich2 score, wild type = 0); higher = more signal; HEK293T, FACS bins

Variant	cAMP reporter score ([1]; pH 5.5)	cAMP reporter score ([1]; pH 6)	cAMP reporter score ([1]; pH 6, modulator: ogerin)	cAMP reporter score ([1]; pH 6.5, modulator: ogerin)	surface expression score [2]
E164Y	-0.383	1.31	1.09	1.39	–
E164_E166del	-0.903	-0.297	-1.26	-0.795	0.725
D165_E166insGS	-1.09	-1.49	-1.19	-0.987	0.118
D165del	-0.139	-1.03	-0.29	-0.315	0.802
E166_N167insGS	0.057	-0.099	-1.04	-1.52	0.98
E166_Q168del	-2.01	-0.017	-1.79	-0.812	1.72
E166del	-0.644	–	-1.08	-0.055	-0.287
N167_Q168insGS	-1.29	-1.35	-1.8	-1.75	0.736
Q168A	0.343	-0.703	–	-0.886	–
Q168C	0.437	0.415	0.091	0.489	-1.06
Q168D	-0.811	-0.739	-0.835	-1.26	0.01
Q168E	-0.031	-1.35	0.111	-1.08	-0.127
Q168F	1.64	–	0.867	0.614	0.537
Q168G	-0.34	–	0.686	2.57	-0.439
Q168H	-1.02	-0.46	-0.92	-0.433	-1.02
Q168I	-0.996	-0.803	-0.863	-1.47	0.074
Q168K	-0.73	-0.956	-0.836	-0.544	-0.692
Q168L	0.52	-0.941	0.905	-0.308	0.329
Q168M	0.592	-0.331	0.522	0.728	0.995
Q168N	1.09	–	0.541	0.494	0.624
Q168R	-0.019	0.321	0.161	0.401	0.442
Q168S	0.446	0.534	0.813	–	0.682
Q168T	-0.273	-0.318	-0.771	-0.544	0.515
Q168V	-1.21	-0.691	-0.933	-0.767	1.45
Q168W	-0.155	-0.398	-0.95	-0.144	0.118
Q168_H169insGS	-1.07	-1.02	-1.3	-1.83	0.796

Variant	cAMP reporter score ([1]; pH 5.5)	cAMP reporter score ([1]; pH 6)	cAMP reporter score ([1]; pH 6, modulator: ogerin)	cAMP reporter score ([1]; pH 6.5, modulator: ogerin)	surface expression score [2]
Q168_H169insGSG	-1.05	-0.85	-1.42	-0.91	0.156
H169_R170del	-1.55	-1.07	-1.92	-2.04	-0.354
H169_R170insG	-1.04	-0.084	-1.3	-0.281	2.12
R170A	-0.87	–	–	-2.07	0.264
R170C	-2.03	–	-0.677	-0.437	1.53
R170D	-2.85	-1.73	–	-0.668	-0.34
R170E	-1.13	-1.12	–	0.295	0.107
R170F	-1.24	-2.01	-0.205	-0.733	-0.765
R170G	-1.68	-0.614	-1.45	-0.996	-0.144
R170H	0.223	-0.556	-0.37	-1.44	0.377
R170I	-0.858	-0.804	-0.743	-1.06	-0.424
R170K	-0.795	-0.946	-0.807	-1.11	-0.983
R170L	0.236	-0.572	-0.369	0.014	1.14
R170M	-0.544	-0.459	-0.671	-0.464	-1.08
R170N	-0.163	-0.446	0.261	-1.21	0.042
R170P	-1.74	-0.693	-1.53	-1.14	0.389
R170Q	-0.969	-1.92	-1.04	-1.15	0.965
R170S	-1.29	-1.41	-2.1	-1.31	-0.213
R170V	0.336	–	0.022	-1.25	0.127
R170W	-0.404	-0.408	-1.18	-1.96	0.082
R170Y	-0.092	-1.6	-0.862	-1.29	0.212
R170_V171del	-1.08	-0.79	-0.733	-0.385	1.43
R170_V171insG	-0.575	-0.646	-1.7	-1.12	0.897
R170_V171insGS	-0.784	-1.25	-1.36	-1.77	0.524
R170_V171insGSG	-0.828	–	-0.843	-1.11	0.929
V171_C172insGS	-1.71	-1.2	-2.16	-1.05	-0.145

Variant	cAMP reporter score ([1]; pH 5.5)	cAMP reporter score ([1]; pH 6)	cAMP reporter score ([1]; pH 6, modulator: ogerin)	cAMP reporter score ([1]; pH 6.5, modulator: ogerin)	surface expression score [2]
V171_C172insGSG	-1.17	-0.779	-0.414	-1.11	-0.666
V171_F173del	-0.537	-0.237	-0.807	-0.891	-1.46
V171del	-1.08	–	-1.5	-1.06	0.059
C172_E174del	-1.3	0.135	-1.31	-0.8	-1.17
C172_F173del	-2.64	-0.467	-1.92	-0.229	-2.17
C172_F173insGS	-0.434	-0.622	-1.1	–	-0.058
C172_F173insGSG	-1.55	-1.31	-1.86	-1.04	-0.18
C172del	-1.22	-0.588	-1.55	-1.45	-1.58
F173_E174insGSG	-0.698	0.382	-2.49	-1.36	0.553
F173_H175del	-1.14	-0.915	-1.45	-1.6	-1.78
F173del	-1.54	-1.2	-1.58	-0.994	-1.73
E174_H175insG	-0.899	-1.18	-0.607	–	-0.29
E174_H175insGSG	-1.86	-1.98	-1.9	-1.98	-0.296
E174del	-1.57	-0.586	-1.49	-0.722	-0.882
H175del	-1.63	-0.496	-1.57	-0.573	-0.796
Y176A	-0.192	–	-1.1	-1.14	0.068
Y176C	-0.684	-0.225	-0.95	-0.718	-0.951
Y176E	-1.21	-1.45	–	-0.651	-0.704
Y176F	0.469	-0.518	-0.128	-1.16	1.33
Y176G	-0.851	-0.736	-1.43	-0.865	-0.265
Y176H	-0.182	-0.25	-0.478	-0.387	-0.363
Y176I	1.22	0.135	0.523	0.242	–
Y176L	-0.717	–	–	-1.74	-0.606
Y176M	-1.18	-1.05	-0.962	-1.44	0.45
Y176N	-1.4	–	–	-2.35	-0.9
Y176P	-1.64	-1.41	–	-0.795	-1.59

Variant	cAMP reporter score ([1]; pH 5.5)	cAMP reporter score ([1]; pH 6)	cAMP reporter score ([1]; pH 6, modulator: ogerin)	cAMP reporter score ([1]; pH 6.5, modulator: ogerin)	surface expression score [2]
Y176Q	-0.638	–	–	-1.33	-0.405
Y176R	-1.62	-1.34	-1.92	-1.19	-0.853
Y176S	-1.11	-1.58	-0.86	-0.936	-0.622
Y176T	-0.832	-1.57	-1.31	-1	-0.804
Y176W	0.245	–	1.25	0.653	–
Y176_I178del	-1.41	-0.563	-2.4	-1.97	-2.62
Y176_P177insG	-0.421	-0.544	-0.688	-0.425	-0.426
Y176_P177insGSG	-1.38	-1.26	-1.65	-0.943	-1.71
P177A	-1.14	-1.27	-0.375	-0.989	-1.26
P177C	-0.72	-0.98	–	-1.06	-2.22
P177D	-0.934	-1.64	-2.02	-1.09	-1.38
P177E	-1.76	-0.624	-1.23	-0.169	-0.901
P177F	-1.62	-1.38	-0.96	-1.37	–
P177G	-1.92	–	-1.22	-1.14	-1.49
P177H	-0.597	-0.658	-0.588	-0.504	-0.748
P177K	-1.58	-1.09	-0.359	-0.466	-0.797
P177L	-1.17	-0.483	-1.24	-0.835	-0.762
P177M	-1.72	-0.82	-1.16	-1.48	-2.01
P177N	-1.61	-1.13	-2.55	-1.59	-0.241
P177Q	-0.411	–	–	-2.11	–
P177R	-1.21	-0.097	-1.62	-0.82	-1.03
P177S	-1.02	-1.58	-1.41	–	-0.897
P177T	-1.55	–	–	0.205	-0.474
P177V	-0.254	–	-0.661	-0.698	-1.33
P177W	-1.67	-1.64	-1.07	–	–
P177Y	-0.84	-1.76	-2.78	-1.53	–

Variant	cAMP reporter score ([1]; pH 5.5)	cAMP reporter score ([1]; pH 6)	cAMP reporter score ([1]; pH 6, modulator: ogerin)	cAMP reporter score ([1]; pH 6.5, modulator: ogerin)	surface expression score [2]
P177_Q179del	-1.46	–	-1.18	-1.06	–
I178_A180del	-1.11	-1.59	-1.65	-1.59	-3.14
I178_Q179insGSG	-1.57	-0.242	-1.92	-1.65	-1.94
Q179A	-0.932	0.216	-0.64	0.501	-0.084
Q179C	0.397	-0.545	-0.346	-1.25	-0.327
Q179D	-0.968	-0.617	-0.578	-0.908	0.579
Q179E	0.544	-0.176	0.586	-0.663	0.688
Q179F	0.936	–	-0.049	-0.01	1.31
Q179G	-2	-0.919	-0.362	-0.974	1.85
Q179H	0.652	–	-0.215	-0.723	1.23
Q179I	0.081	–	-0.663	-0.39	2.01
Q179K	-0.254	0.366	-0.403	-0.317	-0.393
Q179L	-0.053	-0.117	-0.114	-0.259	-0.207
Q179M	0.448	0.431	0.793	-0.042	1.53
Q179N	-0.215	0.019	-1.65	-0.509	2.03
Q179P	0.55	1.04	0.418	0.181	2.36
Q179R	-0.111	-1.23	-0.467	–	0.746
Q179S	-0.395	-0.98	–	-1.33	1.4
Q179T	-0.884	-1.16	-1.42	-1.46	0.608
Q179V	0.666	-0.661	0.089	-1.06	0.13
Q179W	-0.104	0.27	–	0.358	-0.487
Q179Y	-0.4	–	–	-1.32	–
Q179_A180del	-1.18	-1.55	-1.25	-1.78	-2.21
Q179_W181del	-1.18	-0.911	-1.23	-1.19	-0.635
A180_W181insGS	-0.072	-0.3	-1.2	0.257	-0.065

— the GPR68 mutational scans of Howard et al. (2025)
